Data on 167 variants can be found in the RNAGym collection of RNA variant scans (doi:10.7554/elife.90254).

Read counts are not given, so values of variants with three or more changes are uncertain.

The chains are these.
B1: LINE1-mini (parent)
chain: GGCAGAGCUCAACACAGCGUGGCAAAGUGGCUGUGGCUAGACUGCC

This data set covers variants of B1. Description: self-cleavage, relative activity (ratio to wild type); higher = more cleavage; in vitro, sequencing; the parent is a self-cleaving ribozyme.
As to A16C A25C C31G, the self-cleavage was found to be 0.

In the case of A16C G21U G36A, the self-cleavage is 0.39.

For C15U G21U C37U U38A, the self-cleavage is 0.03.

In the case of C15U G21A G36C, the self-cleavage amounted to 0.03.

For A16C A24U A41C, the self-cleavage was found to be 0.09.

Regarding C15U C18A G21A G27C C37A, the self-cleavage is 0.02.

As to A16C G21C U43C, the self-cleavage amounted to 0.01.

As for A16C G17C C31A, the self-cleavage stood at 0.

Take C15U G35U C46A: the self-cleavage was 0.04.

In the case of A16C A41U U43G, the self-cleavage stood at 0.06.

As for A16C G19C G40C C42U, the self-cleavage was 0.05.

For C15U G19C U34G, the self-cleavage was 0.08.

As for C15U G17C C23U, the self-cleavage is 0.05.

Take A16C G19C U20G G40U: the self-cleavage amounted to 0.04.

Consider C15U G17U C42U, for which the self-cleavage worked out at 0.12.

Turning to C15U A25C A41G, the self-cleavage came out at 0.04.

Take A16C G21C U28G: the self-cleavage worked out at 0.3.

As to C15U A39U G44U, the self-cleavage was 0.41.

On to A16C C18G A24G, for which the self-cleavage was found to be 0.15.

For the variant C15U A26G A39C, the self-cleavage stood at 0.16.

In the case of C15U A16G C18G, the self-cleavage came out at 0.02.

C15U G21U A41U: the self-cleavage came out at 0.72.

As to A16C G30C G40C G44A C46G, the self-cleavage worked out at 0.02.

C15U G19U A24C C37U G40U C42U: the self-cleavage is 0.02.

As to A16C C18U G30U, the self-cleavage was found to be 0.08.

Consider C15U C31U G33U, for which the self-cleavage came to 0.09.

As for A16C G33C G35C G40U, the self-cleavage turned out to be 0.12.

For C15U A26C G27U U38G, the self-cleavage worked out at 0.03.

Take C15G U20A G30C G44C: the self-cleavage was found to be 0.01.

Take C15U G21U G27A: the self-cleavage was determined as 0.75.

In the case of A16C C23U G27U U38G, the self-cleavage amounted to 0.

As to C15U U28C C31A U32C C37A, the self-cleavage amounted to 0.01.

As to C15U C31A G40U C42U G44U, the self-cleavage came to 0.01.

Regarding C15U G36U C37U A41U G44A, the self-cleavage is 0.03.

C15U U20C C46G: the self-cleavage was found to be 0.71.

As to C15U G22A A25U C45G, the self-cleavage came to 0.45.

For A16C A25C A26C G30C G33A C37G, the self-cleavage was determined as 0.03.

As for C15G G33U G35U C46A, the self-cleavage stood at 0.01.

Take C15U A24U U38G G44C: the self-cleavage is 0.06.

As to C15U C18U G30U A41U, the self-cleavage was 0.

On to A16C C31A A39U, for which the self-cleavage was determined as 0.03.

On to C15G G30U G35C, for which the self-cleavage came out at 0.03.

C15G G36U U38C: the self-cleavage turned out to be 0.01.

In the case of A16C G21C A25C A26C G30A C45G, the self-cleavage was found to be 0.03.

Consider C15U U20A G27A, for which the self-cleavage amounted to 0.9.

In the case of A16C A25G G36C, the self-cleavage turned out to be 0.03.

With C15U C37G C45U, the self-cleavage was determined as 0.03.

In the case of C15U G22A U32C C42U, the self-cleavage was determined as 0.03.

In the case of C15G G40A U43A, the self-cleavage was 0.

For A16C C42A C45U, the self-cleavage worked out at 0.15.

Regarding C15U C23G U43A, the self-cleavage was 0.32.

For C15U G22A U28A, the self-cleavage was 1.06.

With C15G G22U U32A, the self-cleavage came to 0.01.

As to A16C G27U U34A C42U, the self-cleavage worked out at 0.02.

For A16C G21A C31U, the self-cleavage stood at 0.05.

Take C15U A16U G19U A24G C45G: the self-cleavage is 0.05.

For the variant C15U U32A G40A C42A, the self-cleavage was determined as 0.06.

Take C15U C31U A41G G44U: the self-cleavage was 0.01.

As to A16C G33C C42A, the self-cleavage was found to be 0.03.

Take C15U U38A G40C: the self-cleavage turned out to be 0.16.

With C15U G19A A24C, the self-cleavage came to 0.21.

For C15U G19U G35A, the self-cleavage amounted to 0.13.

Take A16C A26U G30U C46U: the self-cleavage amounted to 0.09.

As for C15U G17U G21C U28A, the self-cleavage is 0.43.

Consider C15U C18U G27U G29C A41G, for which the self-cleavage worked out at 0.11.

Regarding A16C G21A U38C, the self-cleavage was found to be 0.14.

As for A16C G29U U34C, the self-cleavage turned out to be 0.03.

As for C15U C31U G40U, the self-cleavage turned out to be 0.07.

Take A16C C23U U32C G35C: the self-cleavage turned out to be 0.02.

For C15U G17U G33C C45G, the self-cleavage turned out to be 0.02.

For the variant C15U A24G G27U, the self-cleavage stood at 0.04.

In the case of A16C C18A C42U, the self-cleavage stood at 0.04.

For the variant A16C G17U G19A G30A, the self-cleavage was 0.14.

As for C15U A16G G22C U38A, the self-cleavage was 0.02.

Consider C15U A16U C18A C23U, for which the self-cleavage was 0.01.

For the variant A16C C18G G22C A26C G35U, the self-cleavage amounted to 0.04.

In the case of A16C G21A U34C, the self-cleavage amounted to 0.03.

On to A16C A25U G27A G30U G33C G44U, for which the self-cleavage was determined as 0.05.

Turning to A16C A24C G27C G30U G36U C37G, the self-cleavage came to 0.01.

Regarding C15U G21U A24C, the self-cleavage is 1.12.

For the variant C15U C18G G22C A24U, the self-cleavage stood at 0.07.

On to C15U G29C G44A, for which the self-cleavage amounted to 0.31.

For C15U G29C G44C, the self-cleavage came out at 0.93.

For the variant C15U A24U A25C G35A G36C U38A, the self-cleavage turned out to be 0.05.

Consider A16C C45U C46G, for which the self-cleavage was found to be 0.03.

Turning to C15U U20C U32C G35U C42G, the self-cleavage was 0.18.

For the variant C15U G27A C31G G33A, the self-cleavage was determined as 0.1.

Take C15G U28A G33C: the self-cleavage was 0.48.

On to C15U A16G G35A A41C, for which the self-cleavage stood at 0.05.

For the variant C15U G27C U43G, the self-cleavage is 0.07.

C15G U20G C23A C31A: the self-cleavage came to 0.01.

Consider C15U G17A G27A U32G U38C, for which the self-cleavage came out at 0.05.

As to C15G U34C C46A, the self-cleavage was 0.01.

For C15U A24U C31A, the self-cleavage was determined as 0.02.

For C15U A24C G30U, the self-cleavage is 0.07.

On to A16C G27C G40C, for which the self-cleavage was 0.03.

As to C15U G29A C46U, the self-cleavage was 1.23.

As to A16C G29U G40U U43C, the self-cleavage amounted to 0.

With C15U G17U U38C, the self-cleavage came to 0.06.

As for C15U G30U C31U, the self-cleavage came to 0.13.

As for A16C A26U G27U U28G U34A G36C, the self-cleavage worked out at 0.01.

For the variant C15U U20C C23A A24G G33U, the self-cleavage came out at 0.08.

C15U G27C U28A C42A: the self-cleavage worked out at 1.96.

Take C15U A16C A24U: the self-cleavage was determined as 0.13.

For the variant C15U A16U G19A G36A, the self-cleavage turned out to be 0.19.

On to C15U G33C C37U, for which the self-cleavage was 0.02.

A16C C18A G33A A41G: the self-cleavage was 0.07.

In the case of C15U G17U C37A, the self-cleavage turned out to be 0.01.

For the variant C15G U28C G29C, the self-cleavage was determined as 0.06.

As for C15U A26C G27A C31U U32G U43C C45A, the self-cleavage is 0.05.

With C15U G17A U20G C37G, the self-cleavage worked out at 0.03.

A16C G17A U28G G30C U38G: the self-cleavage amounted to 0.01.

As to C15U G19U G29U A39G, the self-cleavage is 0.11.

Turning to A16C C23G U32C, the self-cleavage was 0.04.

Consider C15U G29A G36C C42U, for which the self-cleavage is 0.06.

With C15U G29U U43A, the self-cleavage was determined as 0.05.

A16C C18U U32G: the self-cleavage was 0.65.

Take A16C C18G G22U: the self-cleavage was 0.01.

Take A16C G19A U20G G35U C46A: the self-cleavage was 0.05.

For C15G G29A C31A U38G C46G, the self-cleavage turned out to be 0.01.

In the case of C15U G40A U43C, the self-cleavage was found to be 0.11.

Turning to C15U G40A U43A, the self-cleavage came out at 0.04.

Regarding C15U U34C C46A, the self-cleavage turned out to be 0.

As for C15U A16C C37U, the self-cleavage came to 0.07.

Turning to C15U A16U G22A, the self-cleavage is 0.13.

A16C G29U U32G: the self-cleavage is 0.26.

As to C15U G17C G33C G40U, the self-cleavage is 0.05.

Regarding C15U U20C A24G G27A G33U, the self-cleavage was 0.15.

As for A16C G27A U32A, the self-cleavage worked out at 0.1.

On to C15U A25G G29A U34C G36U, for which the self-cleavage came out at 0.04.

C15U A26C C45G: the self-cleavage is 0.14.

Regarding C15U G21U G36C, the self-cleavage was 0.03.

As for C15U A16G G33C, the self-cleavage stood at 0.02.

For C15U U38G C42A, the self-cleavage was 0.11.

Regarding C15U A25U G33C C37G C42A, the self-cleavage was determined as 0.1.

As to C15U C18G C45U, the self-cleavage amounted to 0.08.

For the variant C15G G35U U38A G40C C42A, the self-cleavage was 0.01.

On to C15G U20G G22A G35A C37A, for which the self-cleavage amounted to 0.03.

Turning to C15G G27A U34C, the self-cleavage was 0.02.

As for C15U C23A A25U, the self-cleavage is 0.79.

A16C C18G A26U C42A G44A: the self-cleavage worked out at 0.01.

In the case of C15U G19U G22C, the self-cleavage is 1.21.

On to C15G U28C U32A, for which the self-cleavage worked out at 0.02.

For C15G G27U G36C, the self-cleavage amounted to 0.16.

C15U U20G U32C: the self-cleavage came to 0.06.

Turning to C15U A25U U32G G44C, the self-cleavage was 0.

As to C15U G40U C42U, the self-cleavage worked out at 0.03.

Consider C15U G27C G30C G44A, for which the self-cleavage was 0.02.

In the case of C15U G35C C46A, the self-cleavage came to 0.03.

With A16C G17A U20A G40A, the self-cleavage turned out to be 0.01.

As to C15U G21A A25U C37U, the self-cleavage came out at 0.12.

A16C A26U G29C C46U: the self-cleavage came to 0.63.

Take C15G G22U G29U: the self-cleavage worked out at 0.21.

On to C15G U28C G40U C42G G44A, for which the self-cleavage turned out to be 0.01.

Consider C15U G27U G44C, for which the self-cleavage is 0.18.

For the variant A16C C18G U38A, the self-cleavage came out at 0.02.

Regarding A16C A25U G27C, the self-cleavage is 0.06.

Take C15U G22A G29C U43G G44C: the self-cleavage worked out at 0.14.

In the case of A16C C37A U38C G40U, the self-cleavage turned out to be 0.04.

As to A16C A25U G33C C37U, the self-cleavage stood at 0.05.

With A16C G17C U32A G36A, the self-cleavage came out at 0.04.

Turning to C15U A16C G22C A24U, the self-cleavage stood at 0.05.

Regarding C15G U34A G35A, the self-cleavage is 0.04.

As for A16C G22U U28A, the self-cleavage was found to be 0.1.

Take A16C G21U G27U U32C U34A: the self-cleavage came out at 0.01.

With A16C G19A A25G C31G G35A U38G C45A, the self-cleavage is 0.

With C15U C18G G40U, the self-cleavage was 0.02.
